Test results from PubChem BioAssay AID662 (National Center for Advancing Translational Sciences (NCATS), 2007).
Where “and” joins values, the source holds several entries; their conditions need not be identical. Equal values may be shown once. Out of some 71,000 compounds screened, about 1,800 (2.5%) were called active. The shares of active, inactive and inconclusive entries below differ from those in the screen. Calls come from the whole dose curve; as a rule, active = well fitted activation curve with a large enough effect in the signal ratio, with a control signal flat (not every such curve was filed as active); inconclusive = small, poorly fitted or top-dose-only effect, or effect the other way, or a change in a side signal; inactive = flat fitted curve, though single readings scatter; the % refers to the signal ratio. Potencies of inconclusive entries are doubtful fits and often do not repeat.

test: Cell signaling CRE-BLA (Fsk stim); details: CHO CRE-bla reporter (cAMP response element driving beta-lactamase), forskolin EC10, beta-lactamase ratio; activity change, negative = inhibition: at 38.2 µM (top of the series) unless noted; for activity change, negative = inhibition: % of control where 0% means no effect
Summary of the method: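 Modulation of forskolin signalling: compounds in titration series added with EC10 NKH 477 to CHO cells carrying a CRE-driven beta-lactamase reporter, 3 h, 37C. CCF4 FRET ratio (460/530 nm, ex 405 nm) gives %activity and AC50.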
Potency is the fitted concentration of half-maximal effect; tags give direction and shape of the fitted curve.

SMILES | activity change, negative = inhibition | Potency
N[C@H](Cc1ccc2oc3cc(=O)c4ccccc4c-3nc2c1)C(=O)O | inconclusive: -10.6% [at 7.6 µM] | 
CN1[C@@H]2CC[C@H]1CC(OC(c1ccc(F)cc1)c1ccc(F)cc1)C2 (stereo partly drawn) |  | inconclusive: 15.8 µM [falling, partial curve]
O=C(CN1CC=C(c2ccccc2)CC1)NC(=O)NCc1ccco1 |  | inconclusive: 20 µM [rising, single point]
O=C(CCCN1CCC2(CC1)C(=O)N(Cc1cccc(F)c1)CN2c1ccccc1)c1ccc(F)cc1 | inconclusive: -5.83% | 
CN1C(=O)N(C)C(=O)C(CCc2ccncc2)(Cc2ccc3c(c2)OCO3)C1=O | inconclusive: 6.44% [at 7.6 µM] | 
O=C1CN(C(=O)CN2CCCCC2)C(c2ccccc2)c2cc(Br)ccc2N1 (stereo not drawn) | inconclusive: 26.7% | 
COc1ccc(Nc2ncc(C(=O)N3CCC4(CC3)OCCO4)c3ccccc23)cc1 | inconclusive: -8.59% | 
NC[C@H](CS(=O)(=O)O)c1ccc(Cl)cc1 | inconclusive: -19.4% | 
CC(C)Br | inactive | 
COC(=O)Nc1cccc(OC(=O)Nc2cccc(C)c2)c1 | inconclusive: -13.8% | 
CN1C(=O)CCS(=O)(=O)[C@@H]1c1ccc(Cl)cc1 | inactive | 
CCCC/C=C/[C@@H](NP(=O)(c1ccccc1)c1ccccc1)c1ccccc1OC | inconclusive: -6.23% | 
CN1CCCC2(CCN(C(=O)c3ccncc3)CC2)C1 | inactive | 
COc1cc2c(cc1OC)[C@]13CC[N@+]4(C)CC5=CCO[C@H]6CC(=O)N2[C@@H]1[C@@H]6[C@@H]5C[C@]34O | inactive: 3.12% [at 7.6 µM] | 
O=C(c1cc2c(s1)CCCC2)N1CCC2(CC1)OCCO2 | inconclusive: -15.3% | 
Oc1ccc2c3c1O[C@H]1c4oc5ccccc5c4C[C@]4(O)[C@H](C2)N(CC2CC2)CC[C@@]314 |  | inconclusive: 15.8 µM [falling, partial curve]
COC(=O)CSC1=NP(=S)(SCC(=O)OC)N2CCCC2=C1C#N (stereo not drawn) |  | inconclusive: 10 µM [falling, partial curve]
NCCc1c[nH]c2ccc(C(N)=O)cc12 |  | inconclusive: 7.94 µM [falling, full curve, poor fit]
CC(C)Sc1nnc([C@@H](N)Cc2c[nH]c3ccccc23)o1 | inactive | 
COc1ccccc1CN1CCCCC1c1cccnc1 (stereo not drawn) | inconclusive: -12.4% | 
Oc1c(Cl)c(Cl)c(Cl)c(Cl)c1Cl (tested in a mixture with another compound) | inconclusive: 25.2% [at 7.6 µM] | 

SMILES | activity change, negative = inhibition | Potency
CN1CCN(Cc2nc3ccccc3n2C)CC1 | inconclusive: 11.2% | 
Cc1cc(OC(=O)c2ccco2)c2c3c(c(=O)oc2c1)CCC3 | inconclusive: 49.6% [at 7.6 µM] | 
CC(C)[C@]1(NC(=O)[C@H]2C=C3c4cccc5[nH]cc(c45)C[C@H]3N(C)C2)O[C@@]2(O)[C@H]3CCCN3C(=O)[C@H](Cc3ccccc3)N2C1=O | inconclusive: 26.5% | 
C=C1[C@@H](O)C2C=CC[C@H](C)C(=O)[C@@](C)(O)C=C[C@@H](OC(C)=O)[C@@]23C(=O)N[C@H](Cc2ccccc2)[C@@H]3[C@@H]1C (stereo partly drawn) |  | inconclusive: 0.00316 µM [rising, full curve, poor fit]
NC[C@H](O)c1cc(O)c(O)cc1F | inactive | 
CCOP(=O)(NC(C)C)Oc1ccc(SC)c(C)c1 (stereo not drawn) | inactive | 
CN(C)CP(=O)(O)CN(C)C=O | inactive | 
c1ccc2sc(C3(N4CCCCC4)CCCCC3)cc2c1 | inconclusive: -18.9% | 
COc1ccc(C[C@@H](N)c2ccc(OC)cc2)cc1 | inactive: -5.82% [at 7.6 µM] | 
N#C/C(=C\c1ccc(O)c(O)c1)C(N)=S | inconclusive: -17.7% and inconclusive: -18.8% | 
CCCCn1c(O)c(C(CC)=Nc2cccc(C(=O)O)c2)c(=O)[nH]c1=O | inactive | 
O=C1C2(Cl)C3(Cl)C4(Cl)C(Cl)(Cl)C5(Cl)C3(Cl)C1(Cl)C5(Cl)C24Cl (stereo not drawn) | inconclusive: -20.5% | inconclusive: 31.6 µM [rising, single point]
C=CCBr | inactive | 
COc1ccc(NC(=O)N2CC3(CCN(C(=O)Oc4ccccc4)CC3)C2)cc1 | inactive | 
CCN(CC)c1ccc(N=Cc2c(O)n(CCC3=CCCCC3)c(=O)[nH]c2=O)cc1 | inconclusive: -12.3% | 
N#C/C=C/C#N | inconclusive: -8.94% | 
CN[C@H]1[C@H]2[C@H]3CCN2C[C@@H]1O3 | inactive | 
CCOC(=O)C1SC2(C(F)(F)F)CC1(O)c1c(C)cc(C)nc1O2 (stereo not drawn) | inactive | 
CN[C@@H]1C[C@H](c2ccc(Cl)c(Cl)c2)c2ccccc21 |  | inconclusive: 2.51 µM [falling, full curve]
O=C(CNS(=O)(=O)c1ccc(Br)s1)N1CCC2(CC1)OCCO2 | inconclusive: 18.6% | 
NNC(N)=S | inactive | 

SMILES | activity change, negative = inhibition | Potency
O=C(NC1(C(F)(F)F)Oc2ccccc2O1)N1CCC2(CC1)OCCO2 | inconclusive: -18.1% | 
O=C1C2CCN(CC2)C1(CO)CO |  | inconclusive: 25.1 µM [rising, single point]
CCCCn1c(O)c(C(C)=Nc2ccc(OCC)cc2)c(=O)[nH]c1=O |  | inconclusive: 12.6 µM [rising, single point]
CCCCn1c(O)c(C(C)=NC(Cc2c[nH]c3ccccc23)C(=O)OC)c(=O)[nH]c1=O (stereo not drawn) | inconclusive: 2.01% | 
CCCCCC[C@H]1C(=O)O[C@H](C)[C@H](NC(=O)c2cccc(NC=O)c2O)C(=O)O[C@@H](C)[C@H]1OC(=O)CC(C)C | inactive | 
O=C1C(Cl)=C(Cl)C(=O)C(Cl)=C1Cl |  | inconclusive: 31.6 µM [rising, single point]
CCOc1cc(-c2nc3c(C)cccn3c2NCC2CCCO2)ccc1O (stereo not drawn) |  | inconclusive: 20 µM [rising, single point]
NC(N)=NCCN=C(N)N | inactive: -6.34% [at 7.6 µM] | 
CCCCOC(=O)c1ccccc1N | inactive | 
C=CCn1c(O)c(C(CC)=NCCCO)c(=O)[nH]c1=O | inactive | 
CCOC(=O)c1c(N)n(Cc2ccc(OC)cc2)c2nc3ccccc3nc12 |  | active: 10 µM
COc1cc2c(cc1OC)-c1c(OC)c(OC)cc3c1C(C2)N(C)CC3 (stereo not drawn) |  | inconclusive: 12.6 µM [rising, partial curve]
CC1(C)CC(=O)C(C2(O)C(=O)NC(=O)NC2=O)=C(O)C1 | inconclusive: -2.32% | 
CCC(=O)O[C@H]1CC[C@H]2[C@@H]3CCC4=CC(=O)CC[C@]4(C)[C@H]3CC[C@]12C | inconclusive: 20.9% [at 17.1 µM] | 
CC(=O)c1c(O)n(C2CCCCCC2)c(=O)[nH]c1=O |  | inconclusive: 12.6 µM [falling, partial curve]
Cc1nc2cc(C(F)(F)F)ccc2n1C1CCN(Cc2nnnn2Cc2cccs2)CC1 |  | inconclusive: 6.31 µM [rising, partial curve]
C=CCN1CCc2cccc3c2[C@@H]1Cc1ccc(O)c(O)c1-3 | inactive | 
COc1ccc(-c2nc(CSCC(=O)N3CCC4(CC3)OCCO4)c(C)o2)cc1OC |  | inconclusive: 7.94 µM [rising, partial curve]
Nc1cccc2ccccc12 | inactive | 
COc1ccc(-n2c(=O)[nH]c3ccccc3c2=O)c(OC)c1 | inconclusive: -6.67% | 
Cc1ccc(N=C=O)cc1N=C=O | inactive | 

SMILES | activity change, negative = inhibition | Potency
CCCC[N+](=O)[O-] | inactive | 
c1ccc2c(c1)Sc1ccccc1N2C[C@H]1CN2CCC1CC2 | inactive: -5.07% [at 7.6 µM] | 
CCOC(=O)C1=C(N)OC(C)=C(C(=O)OCCOC)C12C(=O)Nc1ccccc12 (stereo not drawn) | inconclusive: 18.3% | 
CC12CN3CC(C)(CN(C1)C3c1ccncc1)C2=O (stereo not drawn) | inconclusive: 2.7% | 
CC(C)=C[C@H]1[C@@H](C(=O)OCc2cc3c(cc2Cl)OCO3)C1(C)C | inactive: 2.83% [at 7.6 µM] | 
O=C1NCN(c2ccccc2)C12CCN(C[C@H]1COc3ccccc3O1)CC2 |  | inconclusive: 12.6 µM [falling, partial curve, poor fit]
O=C1NC(=O)C2(Cc3ccccc3N3CCCC32)C(=O)N1c1ccccc1 (stereo not drawn) |  | inconclusive: 0.126 µM [rising, full curve, poor fit]
C[C@]12CCC(=O)C=C1CC[C@@H]1[C@@H]2CC[C@]2(C)C(=O)CC[C@@H]12 | inactive | 
CC1=CC(=O)C2=C(C)C[C@@H](O)[C@@H]3[C@@H](OC(=O)[C@H]3C)[C@H]12 | inactive | 
COc1cc2c(cc1O)CCN[C@H]2C |  | inconclusive: 25.1 µM [rising, partial curve]
COc1ccc(NC(=O)N2CCC3(CC2)CCN(C(=O)Oc2ccccc2)CC3)cc1 | inactive | 
O=C(O)CN1C(=O)CN=C(c2ccccn2)c2cc(Cl)ccc21 |  | inconclusive: 3.16 µM [rising, single point]
CC(C)OCCCNC(=O)c1c(N)n(Cc2cccs2)c2nc3ccccc3nc12 |  | inconclusive: 12.6 µM [rising, partial curve]
C=CCOC(C)=O | inactive | 
CC(=NCCCN1CCOCC1)c1c(O)[nH]c(=O)[nH]c1=O | inactive | 
Cc1nc2ncnn2c(C)c1CCC(=O)N1CCC2(CC1)OCCO2 |  | inconclusive: 0.631 µM [rising, full curve]
CCC(C)NC(=O)c1c(N)n(CC2CCCO2)c2nc3ccccc3nc12 (stereo not drawn) |  | inconclusive: 12.6 µM [rising, partial curve]
O=C(O)[C@@H]1C[C@H]2C[C@@H](CP(=O)(O)O)CC[C@H]2CN1 | inconclusive: -11.1% | 
CCCCOC(=O)COc1cc(C)cc2oc(=O)c3c(c12)CCC3 | inactive | 
